# Results: publication PMC4336329 (PLoS ONE, 2015)
# Out of some 310,000 compounds screened, about 14,000 (4.5%) showed an effect of 50% or more. Effects have a minus sign here. Some of the results follow.
# Biological target: human ether-à-go-go-related gene (hERG) potassium channel (human, UniProt Q12809)
# Assay: primary screen, population patch clamp on CHO cells stably expressing hERG
# 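Note: peak tail current of the secondary pulse compared with the same well before compound.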
# Sequence of human ether-à-go-go-related gene (hERG) potassium channel (Q12809 whole entry, looked up): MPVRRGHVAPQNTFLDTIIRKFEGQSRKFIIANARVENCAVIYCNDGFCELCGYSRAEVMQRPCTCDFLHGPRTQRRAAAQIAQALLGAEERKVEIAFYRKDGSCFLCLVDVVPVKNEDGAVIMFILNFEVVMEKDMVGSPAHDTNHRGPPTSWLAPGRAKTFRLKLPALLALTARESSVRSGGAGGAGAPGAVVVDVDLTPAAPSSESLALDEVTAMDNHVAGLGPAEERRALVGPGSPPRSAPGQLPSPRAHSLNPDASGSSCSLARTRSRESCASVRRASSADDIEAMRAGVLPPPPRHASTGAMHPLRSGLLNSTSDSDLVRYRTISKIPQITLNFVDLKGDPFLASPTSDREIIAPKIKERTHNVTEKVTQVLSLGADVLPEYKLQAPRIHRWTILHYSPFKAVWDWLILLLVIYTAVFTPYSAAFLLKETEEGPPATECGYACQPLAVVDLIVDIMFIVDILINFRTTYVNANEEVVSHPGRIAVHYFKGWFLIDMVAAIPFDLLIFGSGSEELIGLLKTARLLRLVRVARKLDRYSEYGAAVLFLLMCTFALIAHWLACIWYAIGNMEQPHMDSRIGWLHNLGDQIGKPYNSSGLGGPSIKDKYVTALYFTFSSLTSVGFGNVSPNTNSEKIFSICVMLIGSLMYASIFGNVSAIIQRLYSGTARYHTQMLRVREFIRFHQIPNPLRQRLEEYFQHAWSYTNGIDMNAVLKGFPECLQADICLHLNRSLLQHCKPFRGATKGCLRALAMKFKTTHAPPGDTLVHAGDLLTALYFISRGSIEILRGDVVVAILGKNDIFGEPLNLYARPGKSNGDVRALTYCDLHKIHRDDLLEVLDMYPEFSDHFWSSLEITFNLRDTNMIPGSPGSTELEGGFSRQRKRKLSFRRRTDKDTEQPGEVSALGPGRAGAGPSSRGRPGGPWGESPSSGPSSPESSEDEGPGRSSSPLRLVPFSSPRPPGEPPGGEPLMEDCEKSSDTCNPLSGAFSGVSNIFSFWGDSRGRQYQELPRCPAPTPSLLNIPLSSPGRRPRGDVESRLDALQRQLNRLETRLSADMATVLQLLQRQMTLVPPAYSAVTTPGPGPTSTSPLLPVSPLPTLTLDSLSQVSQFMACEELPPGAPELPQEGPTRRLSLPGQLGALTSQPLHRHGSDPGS
row,Structure (SMILES),"hERG current change (%, negative = inhibition) at 10uM"
1,COc1ccc(/C=C/C(=O)OCc2csc(-c3ccccc3)n2)cc1OC,17.4%
2,Fc1ccc(CNCCc2ccccc2)cc1.O=C(O)C(=O)O,-18.2%
3,Cc1[nH]c(=O)c(C#N)c(C)c1CSc1ncccn1,-10.2%
4,CCN(CC)S(=O)(=O)c1ccc(N2CCOCC2)c(NC(=O)c2ccc(N3CCCC3=O)cc2)c1,-10.3%
5,O=C(c1ccccc1)c1ccc(COC(=O)c2cnccn2)cc1,-1.03%
6,Cc1ccccc1C1=NC(C(F)(F)F)(C(F)(F)F)c2c(n(-c3ccc(F)cc3)c(=O)[nH]c2=O)N1,12.5%
7,COc1ccc(-c2nnn(CC(=O)N(CC(=O)NC3CCCC3)Cc3ccco3)n2)cc1OC,-18.1%
8,O=C(CSc1nc2cc(Cl)ccc2s1)Nc1cccc(S(=O)(=O)N2CCOCC2)c1,-10.7%
9,O=C(Nc1ccccc1)c1ccc(CN2CCC(Cc3ccccc3)CC2)cc1,14.7%
10,COc1ccc(NC(=O)CCS(=O)(=O)c2cc3c(cc2C)NC(=O)CO3)cc1,-23.4%
11,CCn1c(=S)sc2c(=O)n(CC(=O)Nc3ccc(OC)c(Cl)c3)c(C)nc21,18.7%
12,O=C(Nc1ccc(Br)cc1)N1CCCCCC1,-6.79%
13,CCC(C)NC(=O)CSc1nc2ccccc2c(=O)n1-c1c(C)n(C)n(-c2ccccc2)c1=O (stereo not shown),1.66%
14,CC1CC(C)CN(c2oc(Cc3ccccc3)nc2C#N)C1 (stereo not shown),-2.37%
15,CC(=O)Nc1c(Cl)cc([N+](=O)[O-])c2ccccc12,-12%
16,COCCOc1nc2c(c(=O)n(C)c(=O)n2C)n1CCc1ccccc1,-3.94%
17,Cc1c(NC(=O)Nc2ccccc2[N+](=O)[O-])c(=O)n(-c2ccccc2)n1C,19.3%
18,COc1ccc2c(c1OC)C(=O)OC2Nc1nc(-c2ccc([N+](=O)[O-])cc2)cs1 (stereo not shown),14.5%
19,O=C(Nc1nnc(-c2ccc(Cl)cc2)o1)C1CCCCC1,12.4%
20,FC(F)(F)c1ccc(C2[C@H]3CN(Cc4cccnc4)[C@H](c4ccccc4)C34CC2(c2cccnc2)C4)cc1 (stereo partly shown),2.05%
21,NC(=O)C1(N2CCCCC2)CCN(C2CC(=O)N(Cc3cccs3)C2=O)CC1 (stereo not shown),6.12%
22,Cc1ccc(C(=O)NCCN2CCOCC2)cc1Cl,-17.7%

row,Structure (SMILES),"hERG current change (%, negative = inhibition) at 10uM"
1,Cc1cccc(C)c1NC(=O)CSc1nnc(-c2ccoc2C)n1C,6.02%
2,O=C(Nc1ccccc1Cl)Nn1cnnc1,18.1%
3,Cc1c(Br)c(=O)oc2cc(OCC(=O)N3C[C@H]4C[C@@H](C3)c3cccc(=O)n3C4)ccc12,-19.4%
4,O=C(c1ccco1)N1CCCN(Cc2nc(-c3ccc4c(c3)OCO4)no2)CC1,-46.1%
5,COc1ccc(CCNC(=O)C2CC(c3cccc(F)c3)=NO2)cc1 (stereo not shown),6.13%
6,c1coc(-c2nc(-c3ccncc3)no2)c1,-1.13%
7,Cc1cc(C)cc(OC(C)C(=O)Nc2ccc3c(c2)n(C)c(=O)n3C)c1 (stereo not shown),-4.37%
8,COc1ccc(CC(=O)c2ccc(OC3OC(CO)C(O)C(O)C3O)cc2O)cc1 (stereo not shown),14.2%
9,Cc1noc(C)c1COC(=O)c1ccccc1Sc1ccccc1C#N,-8.67%
10,c1ccc(-c2noc(C34CC5CC(CC(C5)C3)C4)n2)nc1,-11.9%
11,CC(CCc1ccccc1)NC(=O)c1ccc(NC(=O)c2cccc(Br)c2)cc1 (stereo not shown),11.9%
12,CCOC(=O)CC(C)(C)/C(C)=N/Nc1ccc([N+](=O)[O-])cc1[N+](=O)[O-],-24.5%
13,Cc1cccc(OCC(=O)Nc2ccncc2)c1C,2%
14,CC(=O)Nc1cccc(C(=O)OCc2ccc(C(=O)Oc3ccc(Cl)cc3)cc2)c1,5.09%
15,Cc1ccc(NC(=O)COC(=O)Cc2cccs2)c(Br)c1,15.2%
16,FC(F)(F)c1cc(C(F)(F)F)c2ccc(N3CCN(c4ncccn4)CC3)nc2n1,-28.5%
17,CCOc1cc(CNC)ccc1OCC(=O)NC(C)(C)C.Cl,18.4%
18,O=C(COC(=O)Cc1ccc(Br)cc1)NC12CC3CC(CC(C3)C1)C2,5.98%
19,CCCCCCn1c(NCC)nc2c1c(=O)[nH]c(=O)n2C,-14.7%
20,Cc1ccc(CN2CC(C(=O)N3CCN(c4ccccc4Cl)CC3)CC2=O)cc1 (stereo not shown),-46.8%
21,CCOCCCN(Cc1ccco1)C(=O)c1cc2c(=O)[nH]c3ccc(C)cc3c2s1,-10.5%
